According to PubChem BioAssay AID485367 (National Center for Advancing Translational Sciences (NCATS), 2010):
About 560 (0.17%) of roughly 330,000 compounds were called active. Inconclusive results, whose numbers are uncertain, are shown with a selection of clear calls. Calls follow the shape of the dose curve; as a rule, active = well fitted inhibition curve with a large enough effect; inconclusive = small, poorly fitted or top-dose-only effect, or effect the other way; inactive = flat fitted curve, though single readings scatter. Potencies of inconclusive entries are left out as doubtful fits.

target: ATP-dependent 6-phosphofructokinase (Trypanosoma brucei brucei) (UniProt O15648); assay: qHTS Assay to Find Inhibitors of T. brucei phosphofructokinase; also: nearly all actives have a fitted effect of over 60% in size;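 as to activity, negative = inhibition: 0% = uninhibited 1x PFK enzyme wells and -100% = no-enzyme wells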; conditions: T. brucei PFK, ADP-Glo luminescence; activity, negative = inhibition: at 57.5 µM (top of the series)
Sequence of UniProt O15648 (O15648 whole entry, looked up): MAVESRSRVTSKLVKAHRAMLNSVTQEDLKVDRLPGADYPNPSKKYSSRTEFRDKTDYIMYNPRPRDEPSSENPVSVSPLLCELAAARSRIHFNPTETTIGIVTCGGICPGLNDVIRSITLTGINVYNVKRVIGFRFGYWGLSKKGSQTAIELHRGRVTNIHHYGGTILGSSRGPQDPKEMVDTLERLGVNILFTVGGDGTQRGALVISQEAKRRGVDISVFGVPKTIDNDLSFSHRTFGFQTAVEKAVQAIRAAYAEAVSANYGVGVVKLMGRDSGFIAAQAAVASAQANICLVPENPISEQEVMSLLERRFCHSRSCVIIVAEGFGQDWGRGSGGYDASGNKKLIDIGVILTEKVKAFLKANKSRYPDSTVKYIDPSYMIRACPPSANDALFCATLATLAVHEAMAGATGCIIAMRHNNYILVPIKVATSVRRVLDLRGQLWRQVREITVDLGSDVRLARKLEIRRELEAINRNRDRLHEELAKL
Method in brief: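 In TEA buffer at pH 8.0 with 5 mM MgCl2, enzyme (1.25 nM) converted F6P (0.5 mM) and ATP (0.1 mM) for 45 min at room temperature. ADP product was read by luciferase luminescence.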
Potency is read from the fitted curve at half-maximal effect; tags tell the direction and shape of the fitted curve.

SMILES | Potency | activity, negative = inhibition
NC(=O)c1ccc(NC(=O)Cc2cccs2)cc1 | inconclusive [falling, single point] | 
O=C(Cc1ccccc1)Nc1ccc(C(=O)NCc2ccccc2)cc1 |  | inactive: -1.03%
COc1ccc(NC(=S)Nc2ccc3cn[nH]c3c2)cc1 |  | inactive: 5.85%
N#C/C=C(/N)N1CCN(c2ccc(Cl)c(Cl)c2)CC1 | inconclusive [falling, single point] | 
Cc1c(NC(=O)c2ccc(Cl)c([N+](=O)[O-])c2)cccc1-n1cnnn1 | inconclusive [falling, partial curve] | 
COc1ccc(CNc2cccc3[nH]c(C(F)(F)F)nc23)cc1 |  | inactive: -1.48%
Cc1occc1C(=O)N/N=C/c1ccc2c(c1)OCO2 | inconclusive [falling, single point] | 
COCCNS(=O)(=O)c1ccc(C2CNC(=O)C2)cc1 (stereo unspecified) |  | inactive: 2.16%
O=[N+]([O-])c1ccc(N=Cc2ccc(Br)c([N+](=O)[O-])c2)cc1 | inconclusive [falling, single point] | 
NCCOc1ccccc1Cc1ccccc1 | active: 19 µM | 
COc1ccc(OC)c(/C=N/n2c(COc3ccccc3)n[nH]c2=S)c1 | inconclusive [falling, single point] | 
CCCc1nc2sc3c(SCC(=O)NCc4ccco4)ncnc3c2c2c1CCC2 | inconclusive [falling, single point] | 
NC(N)=N/N=C/c1ccc(OS(=O)(=O)c2ccccc2)cc1 |  | inactive: 2.53%
CCc1ccccc1NC(=O)c1ccc(OCc2c(C)noc2C)cc1 |  | inactive: -3.39%
Oc1ccc(Br)cc1C=Nc1ccc(Cl)cc1 | inconclusive [falling, single point] | 
CC1=C(C(=O)Nc2ccc(C)cc2C)C(c2ccc(Cl)cc2)n2nc(C(=O)OC(C)C)nc2N1 (stereo unspecified) | inconclusive [falling, single point] | 
CCc1ccc(-c2nn(-c3cc(Cl)ccc3[N+](=O)[O-])c(=O)c3ccccc23)cc1 | inconclusive [falling, single point] | 
O=C(O)c1ccc(N/N=C/c2ccc(F)c(F)c2)cc1 | inconclusive [falling, single point] | 
O=C(NCc1ccccc1Cl)C1CCN(S(=O)(=O)c2cccs2)CC1 | inconclusive [falling, partial curve] | 
O=C(/C=C/c1ccc2c(c1)OCO2)NCCSCc1ccc(Cl)cc1 | inconclusive [falling, single point] | 
O=C(CCNS(=O)(=O)c1ccc(Br)cc1)NCCc1ccc(Cl)cc1 |  | inactive: -6.82%
